The whole screen tested about 150,000 compounds, of which about 540 (0.36%) showed an effect of 50% or more. This is one part of the list.

The test system of the assay is Plasmodium falciparum. Description: Primary screen in NF54 nanoGlo assay, in single point, at 2uM, 72h; a lower Z score goes with more inhibition. The settings on record: timepoint 72 hour. The format is functional, Erythrocyte.
As to `CC(C)(C)OC(=O)n1cc2c(c1)C(=O)CCC2`, the % Inhibition (usually the relative decrease from the control value, in per cent) is 1% and the Z score is on record as -0.2.

As for `Cc1ccc(NC(=O)C2[C@H]3C=C[C@@]4(O3)C(C(=O)NC3CCCCC3)N(Cc3cccnc3)C(=O)[C@@H]24)cc1C` (some centres undefined), the “% Inhibition” value is listed as -14% and the Z score is 2.13.

`O=C(CCn1cnc2ccccc2c1=O)N1CCC(N2C(=O)COC2=O)CC1`: the “% Inhibition” value is -14% and the Z score came out at 2.63.

As for `Cc1cccc(-n2nnc(-c3nc(-c4ccccn4)no3)c2N)c1C`, the “% Inhibition” value is given as -12% and the Z score was 1.21.

For `CC(C)N1CC[C@H](NC(=O)Nc2ccc(CC(F)(F)F)cc2)C1=O`, the “% Inhibition” value is on record as -5% and the Z score is listed as 0.66.

With `CC/C=C(\C)c1c(-c2ccccc2)ncn1CCCN1CCC(C(N)=O)CC1`, the “% Inhibition” value was 2% and the Z score was -0.25.

Regarding `NC(=O)CN1CCC(NC(=O)N2CCC[C@H]2c2cccs2)CC1`, the “% Inhibition” value is on record as -5% and the Z score came out at 1.04.

Turning to `COCCn1cc(NC(=O)c2cccc3c2OCC3(C)C)cn1`, the “% Inhibition” value was -9% and the Z score is listed as 1.46.

With `CC(=O)NS(=O)(=O)c1cc(Br)ccc1Cl`, the “% Inhibition” value is -14% and the Z score worked out at 1.55.

Take `COc1cc2ccc3c(CCN(C)C(=O)c4c(F)cccc4F)cc(OC)c(OC)c3c2cc1OC`: the “% Inhibition” value turned out to be 18% and the Z score is -2.8.

With `CC(C)CCNS(=O)(=O)c1cc(-c2nc(-c3cccc(F)c3)no2)cs1`, the “% Inhibition” value is reported as -7% and the Z score is 0.74.

Take `Cn1nc(CN(Cc2ccccc2C(F)(F)F)C2CC2)[nH]c1=O`: the “% Inhibition” value was -12% and the Z score amounted to 1.59.

As to `Cc1ccc(CNC(=O)NCc2cccc(-n3cncn3)c2)s1`, the “% Inhibition” value amounted to 15% and the Z score is on record as -1.85.

On to `COc1ccc(CNC(=O)N2CC[C@H](Oc3ncccc3Br)C2)cc1OC`, for which the “% Inhibition” value is -10% and the Z score was determined as 1.93.

Consider `CC(NC1CC(=O)N(C2CC2c2ccccc2)C1)c1ccc(C(F)F)nc1` (centres undefined), for which the “% Inhibition” value was -10% and the Z score came to 1.15.

For `CC[C@H](NC(=O)c1cncc(Cl)c1)C1CC(O)C1` (some centres undefined), the “% Inhibition” value is on record as -5% and the Z score stood at 0.95.

Take `COc1ccccc1N1CCN(C(=O)C2CN(C(=O)c3ccccc3)CC2c2cc(OC)c(OC)c(OC)c2)CC1` (centres undefined): the “% Inhibition” value was -11% and the Z score is on record as 1.75.

On to `O=C(NCc1cccc(Cl)c1)OCC(F)(F)F`, for which the “% Inhibition” value stood at 2% and the Z score is listed as -0.31.

As for `O=C(NCCc1cnn(-c2ccccc2)c1)C1CCCC(C(F)(F)F)C1` (centres undefined), the “% Inhibition” value is on record as -3% and the Z score is recorded as 0.53.

For the molecule `CC[C@H]1[C@H](NC(=O)CCn2cncn2)[C@H]2CCO[C@H]21`, the “% Inhibition” value is -19% and the Z score came to 1.81.

As for `O=C(c1ccc2nsnc2c1)N1CCC(n2c(=O)[nH]c3ccccc3c2=O)CC1`, the “% Inhibition” value was -1% and the Z score is given as 0.12.

Turning to `O=S(=O)(Cc1ccco1)[C@H]1CCN(S(=O)(=O)Cc2cccc(Cl)c2)C1`, the “% Inhibition” value was -7% and the Z score came out at 1.2.

With `COc1cc(C(=O)NC2CCCCC2)cc2occc12`, the “% Inhibition” value is 36% and the Z score is -4.83.

For `CN(C)c1ccccc1N(C)CCN1CCCS1(=O)=O`, the “% Inhibition” value is -10% and the Z score turned out to be 0.92.

In the case of `O=S(=O)(Cc1c[nH]c2ccccc12)c1ccccc1`, the “% Inhibition” value worked out at 34% and the Z score was -3.87.

As for `CC(C)n1cnc2c(-c3ccccc3)cn(CC(=O)NCc3ccco3)c2c1=O`, the “% Inhibition” value is 9% and the Z score was -1.25.

Turning to `COc1ccc(OC)c(S(=O)(=O)N2CCCN(S(=O)(=O)c3ccccc3)CCC(=O)NCC2)c1`, the “% Inhibition” value came out at 3% and the Z score was -0.36.

In the case of `Cc1nc(-c2ccc(Cl)c(S(=O)(=O)N3CCC(C(=O)Nc4ccccc4C)CC3)c2)no1`, the “% Inhibition” value is recorded as -12% and the Z score came out at 1.51.

Take `CS(=O)(=O)[C@H]1CCN(S(=O)(=O)c2ccc3c(c2)OCCO3)C1`: the “% Inhibition” value is -9% and the Z score came out at 1.14.

For `Cc1ccsc1[C@H]1CCN(C(=O)c2nc(C(C)C)cs2)C[C@@H]1O`, the “% Inhibition” value turned out to be 8% and the Z score is listed as -1.05.

On to `CC(C)n1cc(NC(=O)N(Cc2ccsc2)C2CCCC2)nn1`, for which the “% Inhibition” value is recorded as -10% and the Z score turned out to be 1.56.

As for `O=C(NCC(F)(F)F)N1CCC[C@H]1c1ccc[nH]1`, the “% Inhibition” value is listed as -3% and the Z score is given as 0.27.

As for `CCCN(CC(=O)O)c1ccnc(N(C)C)n1`, the “% Inhibition” value is -18% and the Z score is given as 2.82.

Consider `Cc1cc(NS(=O)(=O)c2cc3c(cc2Br)NC(=O)CO3)n(C)n1`, for which the “% Inhibition” value worked out at 12% and the Z score is reported as -2.06.

As to `COc1cc2c(cc1CN1CCC3(CC1)C[C@H](O)CO3)OCO2`, the “% Inhibition” value was found to be 7% and the Z score was -1.04.

For `COCCn1cc(CN2CCN(c3ccccn3)CC2)ccc1=O`, the “% Inhibition” value is reported as -5% and the Z score was 0.98.

In the case of `O=C(Cc1cccs1)N1CCC[C@@H]1CF`, the “% Inhibition” value is given as -12% and the Z score came out at 1.42.

On to `Cc1ccccc1Cn1c2ccccc2c2ncn(Cc3ccc(F)cc3)c(=O)c21`, for which the “% Inhibition” value turned out to be 5% and the Z score is on record as -0.62.

With `Cc1cc(N2CCC(c3nnc(CN4CCOCC4)n3C)CC2)ncn1`, the “% Inhibition” value was 10% and the Z score is -1.31.

Consider `CC(C)(C)c1ccn(C2(C(=O)O)CCN(Cc3cccc(O)c3)CC2)n1`, for which the “% Inhibition” value is reported as -18% and the Z score amounted to 2.22.

For `Cc1csc(NC(=O)OC(C)(C)C)c1`, the “% Inhibition” value is listed as 1% and the Z score was -0.18.

For the molecule `Cc1ccc(S(=O)(=O)N2CCC(c3cc(C(=O)Nc4ccccc4F)[nH]n3)CC2)s1`, the “% Inhibition” value is reported as -6% and the Z score worked out at 1.16.

Source of the values: ChEMBL document CHEMBL4888484, “Replenishing the malaria drug discovery pipeline: Screening and hit evaluation of the MMV Hit Generation Library 1 (HGL1) against asexual blood stage Plasmodium falciparum ,using a nano luciferase reporter read-out” (2022).
